Article PMC4598844
These are yes or no findings as the source states them, for the method shown. In cells and extracts the contact can be indirect. Some binding calls cover weakened binding; strength is not graded here.

Amino acid sequences for entries named in this document (tags omitted). A change or cut given only in a name is not applied to a line headed by its entry.
UniProt Q92560: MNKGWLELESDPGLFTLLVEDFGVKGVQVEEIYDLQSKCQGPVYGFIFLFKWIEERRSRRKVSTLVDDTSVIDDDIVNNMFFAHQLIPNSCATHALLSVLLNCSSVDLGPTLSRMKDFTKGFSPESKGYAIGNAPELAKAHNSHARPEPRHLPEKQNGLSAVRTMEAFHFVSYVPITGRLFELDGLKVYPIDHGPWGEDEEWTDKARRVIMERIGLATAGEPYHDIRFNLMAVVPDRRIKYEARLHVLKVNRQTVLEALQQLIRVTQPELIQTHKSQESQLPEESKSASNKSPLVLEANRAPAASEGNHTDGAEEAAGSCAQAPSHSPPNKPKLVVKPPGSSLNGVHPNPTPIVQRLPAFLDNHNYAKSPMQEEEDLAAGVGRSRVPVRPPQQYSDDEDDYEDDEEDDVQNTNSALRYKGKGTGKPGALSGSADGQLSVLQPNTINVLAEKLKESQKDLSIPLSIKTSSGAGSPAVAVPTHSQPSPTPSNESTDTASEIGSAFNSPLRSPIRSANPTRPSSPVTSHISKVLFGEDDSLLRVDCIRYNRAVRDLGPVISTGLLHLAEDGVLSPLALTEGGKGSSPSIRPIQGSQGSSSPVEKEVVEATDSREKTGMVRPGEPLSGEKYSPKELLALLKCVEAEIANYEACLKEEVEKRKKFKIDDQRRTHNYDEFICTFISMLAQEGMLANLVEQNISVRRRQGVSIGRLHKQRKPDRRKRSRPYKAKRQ
UniProt Q13887: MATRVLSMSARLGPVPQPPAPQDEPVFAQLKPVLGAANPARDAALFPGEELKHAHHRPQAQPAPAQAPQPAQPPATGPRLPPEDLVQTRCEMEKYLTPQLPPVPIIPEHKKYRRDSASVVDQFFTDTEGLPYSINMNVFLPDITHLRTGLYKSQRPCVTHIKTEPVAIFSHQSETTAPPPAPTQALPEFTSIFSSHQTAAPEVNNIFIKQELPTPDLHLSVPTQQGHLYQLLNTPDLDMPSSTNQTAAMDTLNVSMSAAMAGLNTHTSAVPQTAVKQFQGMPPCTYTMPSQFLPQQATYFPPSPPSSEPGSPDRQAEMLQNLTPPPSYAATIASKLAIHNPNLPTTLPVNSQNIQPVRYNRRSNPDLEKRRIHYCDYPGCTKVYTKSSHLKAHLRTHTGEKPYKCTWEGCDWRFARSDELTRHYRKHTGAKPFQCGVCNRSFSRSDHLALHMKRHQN
UniProt P01106: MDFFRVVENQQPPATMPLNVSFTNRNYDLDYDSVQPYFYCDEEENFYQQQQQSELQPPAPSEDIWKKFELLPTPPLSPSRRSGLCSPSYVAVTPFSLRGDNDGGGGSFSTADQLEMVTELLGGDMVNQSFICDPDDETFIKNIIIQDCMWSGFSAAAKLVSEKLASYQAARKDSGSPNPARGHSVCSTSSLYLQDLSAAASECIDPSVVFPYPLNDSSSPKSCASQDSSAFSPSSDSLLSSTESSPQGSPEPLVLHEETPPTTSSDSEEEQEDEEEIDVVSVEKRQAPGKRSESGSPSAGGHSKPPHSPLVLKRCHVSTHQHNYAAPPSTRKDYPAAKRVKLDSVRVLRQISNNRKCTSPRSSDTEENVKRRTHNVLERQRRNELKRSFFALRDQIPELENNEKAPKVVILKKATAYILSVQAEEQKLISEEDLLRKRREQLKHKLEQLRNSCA

Legend:
[1] = molecular target: GST-fused full-length BAP1 (1–729) (human) (UniProt Q92560); test: pull-down; Flag-tagged full-length or deletion constructs of KLF5 and GST-BAP1 transfected into HEK293FT cells; GST-BAP1 pulled down with glutathione beads; KLF5 proteins detected by WB
[2] = molecular target: KLF5-3 × Flag, full-length KLF5 (1–457) (human) (UniProt Q13887); test: co-IP; GST-fused full-length or deletion constructs of BAP1 co-expressed with KLF5-3 × Flag in HEK293FT cells; KLF5-3 × Flag immunoprecipitated with Flag-M2 beads; BAP1 proteins detected by WB
[3] = molecular target: endogenous BAP1 (human (endogenous in MCF10A and HCC1806)) (UniProt Q92560); test: co-IP; endogenous proteins; HCC1806 cell lysates immunoprecipitated with the anti-BAP1 antibody, IgG as negative control; partners detected by WB
[4] = molecular target: endogenous BAP1 (human (endogenous in MCF10A and HCC1806)) (UniProt Q92560); test: co-IP; endogenous proteins in MCF10A cells; BAP1 immunoprecipitated with the anti-BAP1 antibody, IgG as negative control; KLF5 detected by WB; also with serum stimulation
[5] = molecular target: KLF5-3 × Flag, full-length KLF5 (1–457) (human) (UniProt Q13887); test: co-IP; KLF5-3 × Flag and BAP1 co-transfected into HEK293FT cells; KLF5 immunoprecipitated with anti-Flag (Flag-M2 beads); partners detected by WB

With “KLF5-3 × Flag, full-length KLF5 (1–457) (from UniProt Q13887 1-457)” the binding [1] was “binds”.
“GST-fused middle part of BAP1 (241–596) (from UniProt Q92560 241-596) (domain or fragment)” was tested, and the binding [2] was “no binding”.
For “KLF5-3 × Flag N terminus (1–200) (from UniProt Q13887 1-200) (domain or fragment)”, the binding [1] was “binds”.
With “endogenous KLF5 (from UniProt Q13887 1-457)” the binding [3] was “binds” and the binding [4] was “binds”.
“GST-fused BAP1 C terminus (597–729) (from UniProt Q92560 597-729) (domain or fragment)” was tested, and the binding [2] was “binds”.
With “c-Myc protein, endogenous (from UniProt P01106 1-454)” the binding [3] was “no binding”.
In the case of “KLF5-3 × Flag C terminus (201–457) (from UniProt Q13887 201-457) (domain or fragment)”, the binding [1] is reported as “binds”.
“KLF5-3 × Flag middle part (201–372) (from UniProt Q13887 201-372) (domain or fragment)” was tested, and the binding [1] was “no binding”.
In the case of “GST-fused full-length BAP1 (1–729) (from UniProt Q92560 1-729) (enzyme)”, the binding [2] is reported as “binds”.
With “BAP1 (BRCA1-associated protein 1), exogenous (from UniProt Q92560 1-729) (enzyme)” the binding [5] was “binds”.
In the case of “KLF5-3 × Flag C terminus (373–457) (from UniProt Q13887 373-457) (domain or fragment)”, the binding [1] is reported as “binds”.
“KLF5-3 × Flag N terminus (1–372) (from UniProt Q13887 1-372) (domain or fragment)” was tested, and the binding [1] was “binds”.
In the case of “GST-fused BAP1 N terminus (1–240) (from UniProt Q92560 1-240) (domain or fragment)”, the binding [2] is reported as “binds”.
